In PubChem BioAssay AID504333 (National Center for Advancing Translational Sciences (NCATS), 2011):
Values joined by “and” are separate entries in the source; they are usually repeats but may differ in a detail not shown here. Equal entries are not always repeated. Hit rate of the full screen: of about 360,000 compounds, about 16,000 (4.4%) were called active. The inconclusive results got no clear call from the source; some entries with a clear call stand among them for comparison. Calls come from the whole dose curve; as a rule, active = well fitted inhibition curve with a large enough effect; inconclusive = small, poorly fitted or top-dose-only effect; inactive = no such curve, though single readings can be large or run the other way. Where the call is inconclusive, the potency comes from a doubtful curve fit.

The molecules below were run against Bromodomain adjacent to zinc finger domain protein 2B (Homo sapiens) (UniProt Q9UIF8) (assay: qHTS Assay for Inhibitors of BAZ2B). Details: AlphaScreen BAZ2B-H3K14Ac peptide displacement; activity change, negative = inhibition: at 114 µM (top of the series) unless noted.
UniProt Q9UIF8, sequence (Q9UIF8 whole entry, looked up, the tested form may be a part): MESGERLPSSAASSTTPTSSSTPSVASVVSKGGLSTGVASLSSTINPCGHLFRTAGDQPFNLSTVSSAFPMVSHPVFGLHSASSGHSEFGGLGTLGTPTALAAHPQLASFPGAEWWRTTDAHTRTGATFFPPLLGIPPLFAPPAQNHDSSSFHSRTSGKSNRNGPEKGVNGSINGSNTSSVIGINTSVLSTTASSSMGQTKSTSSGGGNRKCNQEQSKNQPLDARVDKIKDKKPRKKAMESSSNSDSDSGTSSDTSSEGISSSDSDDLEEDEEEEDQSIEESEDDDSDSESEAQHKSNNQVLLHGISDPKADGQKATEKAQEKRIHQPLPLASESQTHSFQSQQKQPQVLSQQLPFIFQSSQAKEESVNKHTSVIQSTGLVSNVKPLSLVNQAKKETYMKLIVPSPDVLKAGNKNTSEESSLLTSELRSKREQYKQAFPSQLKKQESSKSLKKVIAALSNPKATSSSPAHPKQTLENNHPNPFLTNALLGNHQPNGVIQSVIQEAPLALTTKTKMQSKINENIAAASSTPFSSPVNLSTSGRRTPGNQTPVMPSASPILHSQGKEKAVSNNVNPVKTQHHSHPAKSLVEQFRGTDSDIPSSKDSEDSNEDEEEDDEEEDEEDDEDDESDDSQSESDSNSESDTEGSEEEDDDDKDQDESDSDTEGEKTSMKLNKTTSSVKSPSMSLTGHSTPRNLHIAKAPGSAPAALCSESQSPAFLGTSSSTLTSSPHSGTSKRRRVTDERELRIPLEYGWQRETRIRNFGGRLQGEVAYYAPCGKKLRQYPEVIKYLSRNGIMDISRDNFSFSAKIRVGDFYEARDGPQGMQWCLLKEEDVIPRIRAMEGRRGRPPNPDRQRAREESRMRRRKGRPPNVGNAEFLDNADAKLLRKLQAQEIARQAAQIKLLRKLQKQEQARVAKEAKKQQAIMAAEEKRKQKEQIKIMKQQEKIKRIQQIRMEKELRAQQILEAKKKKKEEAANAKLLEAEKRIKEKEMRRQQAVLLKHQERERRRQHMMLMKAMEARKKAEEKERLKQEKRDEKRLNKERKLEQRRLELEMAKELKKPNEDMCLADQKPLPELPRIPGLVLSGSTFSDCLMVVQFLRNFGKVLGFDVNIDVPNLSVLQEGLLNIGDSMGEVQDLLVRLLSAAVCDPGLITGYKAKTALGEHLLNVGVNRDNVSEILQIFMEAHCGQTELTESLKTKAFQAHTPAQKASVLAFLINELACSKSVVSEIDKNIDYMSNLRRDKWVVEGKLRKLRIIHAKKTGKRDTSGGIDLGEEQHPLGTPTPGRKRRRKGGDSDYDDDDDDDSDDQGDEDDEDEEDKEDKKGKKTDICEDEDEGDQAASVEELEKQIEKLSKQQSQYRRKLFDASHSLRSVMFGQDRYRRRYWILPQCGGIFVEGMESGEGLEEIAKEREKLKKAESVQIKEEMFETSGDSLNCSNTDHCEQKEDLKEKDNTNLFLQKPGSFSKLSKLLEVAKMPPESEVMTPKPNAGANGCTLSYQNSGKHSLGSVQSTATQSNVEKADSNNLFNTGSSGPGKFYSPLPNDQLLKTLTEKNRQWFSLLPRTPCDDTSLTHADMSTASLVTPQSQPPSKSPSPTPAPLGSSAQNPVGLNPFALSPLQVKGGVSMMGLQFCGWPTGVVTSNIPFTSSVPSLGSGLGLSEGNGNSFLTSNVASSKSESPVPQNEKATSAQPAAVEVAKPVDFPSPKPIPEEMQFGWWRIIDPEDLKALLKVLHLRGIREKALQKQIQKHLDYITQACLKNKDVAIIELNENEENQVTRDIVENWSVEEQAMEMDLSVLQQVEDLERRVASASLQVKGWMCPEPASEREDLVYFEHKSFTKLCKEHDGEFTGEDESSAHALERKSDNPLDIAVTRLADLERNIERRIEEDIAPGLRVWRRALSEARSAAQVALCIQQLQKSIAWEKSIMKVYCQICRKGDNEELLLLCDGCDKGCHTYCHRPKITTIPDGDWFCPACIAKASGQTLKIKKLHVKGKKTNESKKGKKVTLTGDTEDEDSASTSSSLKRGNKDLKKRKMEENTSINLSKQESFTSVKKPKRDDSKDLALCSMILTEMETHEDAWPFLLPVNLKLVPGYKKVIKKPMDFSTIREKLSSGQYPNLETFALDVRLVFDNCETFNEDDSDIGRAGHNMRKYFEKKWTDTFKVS
How it was run: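 AlphaScreen displacement of biotin-H3(5-23)K14Ac peptide (50 nM final) from BAZ2B (50 nM final) in PBS pH 7.4, 0.01% Tween-20; complex preformed 30 min RT, then compounds (top 110 uM) 30 min RT, beads 20 min dark.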
% is set by controls: 0 for no effect and ±100 for the full control effect; potency is the fitted concentration of half-maximal effect; tags give direction and shape of the fitted curve.
Note: nearly all actives have a fitted effect of over 60% in size.

SMILES | Potency | activity change, negative = inhibition
O=C(Nc1sc2c(c1C(=O)O)CCCCC2)c1ccccc1F | inconclusive: 79.4 µM [inhibitor, single point] | –
CCOc1ccc(CNC(=O)c2sc3ncnc(N(C)C4CCCCC4)c3c2C)cc1 | – | inactive: -1.02%
CC1(C)CC(=O)c2cc(N=C/C(C(=O)c3ccccc3)=C(\O)c3ccccc3)c(=O)oc2C1 | – | inactive: -28.2%
CC1CN(c2snnc2C=C2C(=O)OC(C)(C)OC2=O)CC(C)O1 (configuration not stated) | inconclusive: 70.8 µM [inhibitor, single point] | –
CCCCOc1ccc(CNC(=O)Cc2ccc(NC(=O)N3CCSc4ncccc43)cc2)cc1 | – | inactive: -19.9%
CCC(C)[C@H]1CNCCN1CCc1cccc2ccccc12 (some centres not stated) | inconclusive: 89.1 µM [inhibitor, single point] | –
CCOC(=O)c1c(S(=O)(=O)N(C)Cc2ccco2)c(C)n(C)c1C | inconclusive: 79.4 µM [inhibitor, partial curve] | –
Cc1nn(-c2ccc(N3CCOCC3)nn2)c(C)c1CCC(=O)NCc1ccccc1F | inconclusive: 89.1 µM [inhibitor, single point] and inconclusive: 31.6 µM [inhibitor, partial curve, poor fit] | –
CN(C)C(=O)CSc1n[nH]c(-c2ccco2)n1 | inconclusive: 89.1 µM [inhibitor, single point] | –
Cc1cc2ccccn2c1C(=S)NC(=O)c1ccccc1 | active: 14.1 µM | –
CN1C(=O)c2ccccc2C(C(=O)NCc2ccco2)C1c1c[nH]c2ccccc12 (configuration not stated) | inconclusive: 89.1 µM [inhibitor, single point] | –
O=C(COC(=O)c1cnccn1)c1ccc([N+](=O)[O-])cc1 | inconclusive: 89.1 µM [inhibitor, single point] | –
CCC(C)NCCCCOc1ccc(Br)cc1 (configuration not stated) | inconclusive: 79.4 µM [inhibitor, single point] | –
CCCCC1(C)OC(=O)C(=Cc2ccc(SC)cc2)C(=O)O1 (configuration not stated) | – | inactive: -3.48%
Cc1ccsc1/C=C(\C(=O)c1ccc(OC(C)C)cc1)c1nc2ccccc2o1 | inconclusive: 44.7 µM [inhibitor, partial curve] | –
COc1ccc(NC(=O)C/C(C)=N/NC(=O)c2cccs2)c([N+](=O)[O-])c1 | inconclusive: 50.1 µM [inhibitor, partial curve] | –
O=C(CC1SC(N2CCCC2)=NC1=O)Nc1ccc(C(=O)N2CCN(c3cccc(Cl)c3)CC2)cc1 (configuration not stated) | inconclusive: 89.1 µM [inhibitor, single point] | –
CCc1nnc(N/N=C/c2ccc(N3CCC(C)CC3)c([N+](=O)[O-])c2)n1N | inconclusive: 50.1 µM [inhibitor, partial curve] | –
Cc1sc2ncnc(SCC(=O)NCC(C)C)c2c1C | – | inactive: 2.37%
O=C(CCN1C(=O)/C(=C/c2ccccc2F)SC1=S)NC1C=CS(=O)(=O)C1 (configuration not stated) | inconclusive: 89.1 µM [inhibitor, single point] | –
CCOC(=O)c1c(S(=O)(=O)Nc2cccc(-c3ccno3)c2)c(C)n(C)c1C | inconclusive: 35.5 µM [inhibitor, full curve] | –
Cc1ccc(CC(=O)Nc2cccc([N+](=O)[O-])c2)cc1 | inconclusive: 31.6 µM [inhibitor, full curve, poor fit] | –
O=C(Nc1ccc(F)cc1)Nc1ccccc1F | – | inactive: -3.22%

SMILES | Potency | activity change, negative = inhibition
COCCn1c(C)cc(C(=O)COC(=O)/C=C/c2cccc(OC)c2)c1C | inconclusive: 35.5 µM [inhibitor, partial curve] | –
COc1ccc2c(c1)nc(SCC(C)O)n2C (configuration not stated) | – | inactive: -6.83%
COc1ccc(N2C(=O)/C(=C\c3ccco3)N=C2SCC(=O)N(C(C)C)C(C)C)cc1Cl | inconclusive: 39.8 µM [inhibitor, partial curve] | –
COc1ccc(N=Nc2cc(C)c(O)c(CN3CCCCC3)c2)cc1 | active: 12.6 µM | –
Nc1cc(S(=O)(=O)O)cc([N+](=O)[O-])c1O | inconclusive: 56.2 µM [inhibitor, partial curve] | –
CC(NC(=O)COC(=O)/C=C/c1ccco1)c1ccccc1 (configuration not stated) | inconclusive: 79.4 µM [inhibitor, single point] | –
O=C(/C=C/c1ccc(F)cc1)NC(=S)N1CCN(c2ccccn2)CC1 | – | inactive: -1.56%
N#Cc1ccsc1NC(=O)CSc1nnnn1-c1ccc(O)cc1 | inconclusive: 79.4 µM [inhibitor, single point] | –
CC(C)CCNC(=O)C1CCN(Cc2cccc(OCc3ccccc3)c2)CC1 | inconclusive: 89.1 µM [inhibitor, single point] | –
Cc1ccc(C2=NN(C(=O)CSc3nc(N)cc(N)n3)C(c3ccco3)C2)cc1 (configuration not stated) | inconclusive: 44.7 µM [inhibitor, partial curve] | –
O=C(CSc1nnc(NC(=O)C2CC(=O)N(c3ccc(F)cc3)C2)s1)NCc1ccco1 (configuration not stated) | – | inactive: -33.6%
COC(=O)CCCC1=CC2=C(c3ccccc3)C(=O)C(C)(OC(=O)C3CCCC3)C(=O)C2=CN1c1ccc(OC)cc1 (configuration not stated) | inconclusive: 44.7 µM [inhibitor, partial curve] | –
COC(=O)[C@@H]1CC[C@H](C)[C@@H](c2ccc(C)cc2)N1C(=O)c1ccc(/C=N/OC[C@@H](O)[C@H]2O[C@@H]3OC(C)(C)O[C@@H]3[C@H]2O)cc1 | inconclusive: 79.4 µM [inhibitor, single point] | –
Cc1cc(Cl)c2oc(C(=O)N3CCN(C(=O)c4ccco4)CC3)c(C)c2c1 | inconclusive: 50.1 µM [inhibitor, partial curve] | –
O=S(=O)(c1ccc2nc(N3CCN(c4ccccc4)CC3)ccc2c1)N1CCCCC1 | inconclusive: 89.1 µM [inhibitor, single point] | –
CC1CN(C(=O)c2cc(Br)c(Br)s2)CC(C)O1 (configuration not stated) | – | inactive: 6.52%
CC(C)C(NS(=O)(=O)c1cccc2cccnc12)C(=O)Nc1ccc(OC(F)(F)F)cc1 (configuration not stated) | – | inactive: -18.8%
C/C(=N/NC(=O)c1cnccn1)c1cccs1 | inconclusive: 89.1 µM [inhibitor, single point] | –
NC(=O)c1cc([N+](=O)[O-])cc2c1C=Cc1ccccc1O2 | inconclusive: 22.4 µM [inhibitor, full curve] | –
C=CCn1c(Cc2csc(N)n2)nnc1SCC(=O)Nc1ccc(C(=O)OCC)cc1 | active: 22.4 µM | –
Cc1cc(OC(C)C(=O)NCC2CCC(C(=O)O)CC2)c2c(C)c(C)c(=O)oc2c1 (configuration not stated) | – | inactive: -20.8%
CCOCCn1c(N2CCCC2)nc2c1c(=O)[nH]c(=O)n2C | active: 56.2 µM | –
O=C(CCN1CCN(Cc2ccccc2)CC1)NNC(=O)Nc1cccc(Cl)c1 | inconclusive: 39.8 µM [inhibitor, partial curve] | –

SMILES | Potency | activity change, negative = inhibition
CCC(CC)COC(=O)C(C#N)c1nc2ccccc2nc1N1CCOCC1 (configuration not stated) | inconclusive: 56.2 µM [inhibitor, partial curve] | –
CC(C)c1ccc(NC(=O)CCC(=O)NCc2ccco2)cc1 | – | inactive: 0.439%
Cc1cc(C(C#N)c2cccc(Cl)c2)n2ncnc2n1 (configuration not stated) | inconclusive: 50.1 µM [inhibitor, partial curve] | –
Cc1ccc(NC(=O)CN(C)C(=O)c2ccc3[nH]c4c(c3c2)CC(C)CC4)cc1 (configuration not stated) | inconclusive: 44.7 µM [inhibitor, partial curve] | –
Cc1ccc2c(c1)N(CC(=O)N1CCCC1)C(=O)c1cccnc1O2 | – | inactive: -38.2%
Cc1ccc(-n2nc3c(=O)n(C(C)C(=O)NCc4ccccc4Cl)nc(C)c3c2C)cc1 (configuration not stated) | inconclusive: 89.1 µM [inhibitor, single point] | –
O=C1c2ccccc2-c2n[nH]c(=O)c3ccc(N4CCCCC4)c1c23 | inconclusive: 3.16 µM [inhibitor, full curve, poor fit] | –
COc1cc(CN2CCCCC2)ccc1OCc1ccccc1 | inconclusive: 89.1 µM [inhibitor, single point] | –
CCN1C(=O)C(CC(=O)Nc2ccc(OC)cc2)N(CCN2CCOCC2)C1=S (configuration not stated) | – | inactive: -1.31%
Cc1cnc(NC(=O)c2sc3ccccc3c2Cl)s1 | – | inactive: -0.667%
CCN(CC(=O)Nc1ccccc1C(F)(F)F)C(=O)CCc1nc2sc3c(c2c(=O)[nH]1)CCCC3 | inconclusive: 89.1 µM [inhibitor, single point] | –
CCOC(=O)CSC1=NC(=O)/C(=C\c2ccc(Cl)cc2)S1 | – | inactive: -33.3%
Cc1cccc(N2CC(O)=C(c3nc4ccccc4n3C)C2=N)c1 | inconclusive: 79.4 µM [inhibitor, single point] | –
O=C1CC(NNc2ccccc2)C(=O)N1c1cccc(Cl)c1 (configuration not stated) | inconclusive: 89.1 µM [inhibitor, single point] | –
Cn1c(C(=O)N2CCN(Cc3ccc4c(c3)OCO4)CC2)cc2sccc21 | inconclusive: 89.1 µM [inhibitor, single point] | –
Cc1cccc(N2CCN(C(=O)c3ccc4c(Cl)c5c(nc4c3)CCCC5)CC2C)c1 (configuration not stated) | inconclusive: 17.8 µM [inhibitor, full curve] | –
CCn1c(=O)c(C(=O)Nn2c(C)nc3ccccc3c2=O)c(O)c2ccccc21 | active: 50.1 µM | –
C#CCOCCOCCOCCNc1nc(N2CCN(C(=O)[C@H](CCCCN)n3cc(C(N)COC(=O)C(F)(F)F)nn3)CC2)nc(N2CCN(C(=O)[C@H](CCCCN)n3cc(C(N)CC(C)C)nn3)CC2)n1 (some centres not stated) | active: 79.4 µM | –
Cc1[nH]c2ccccc2c1/C=N/NC(=O)c1cc(-c2ccncc2)nc2ccccc12 | inconclusive: 22.4 µM [inhibitor, full curve] | –
CCn1cc(C(=O)O)c(=O)c2cc(F)c(N3CCN(S(=O)(=O)c4ccc(Br)cc4)CC3)cc21 | – | inactive: 7.85%
N#CC(C#N)=Cc1ccc(OC(=O)c2ccccn2)cc1 | active: 8.91 µM | –
